Data published in paper PMC9911399, “Two distinct binding modes provide the RNA-binding protein RbFox with extraordinary sequence specificity”.
Changes are numbered by the printed parent chain; changes in the protein carry UniProt numbers. The list shows a part of the results.

T1: RBFOX1 RRM (Homo sapiens, UniProt Q9NWB1 109-208)
T1 sequence: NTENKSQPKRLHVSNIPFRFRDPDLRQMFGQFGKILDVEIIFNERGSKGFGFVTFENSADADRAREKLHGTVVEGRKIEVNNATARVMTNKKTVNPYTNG

B1: UAGCUCU (DNA:RNA)
RNA: GGGAGACCGGAAUUCAGAUUGUCCUAGCUCUUUAAAUCCCGUCGUAGCCACCA
DNA 1: CAATCTGAATTCCGGTCTCCC
DNA 2: TGGTGGCTACGACGGGATT
B2: CGGAUCU (DNA:RNA)
RNA: B1 RNA with U25C, A26G, C28A
DNA 1: CAATCTGAATTCCGGTCTCCC
DNA 2: TGGTGGCTACGACGGGATT
B3: UUUGAGU (DNA:RNA)
RNA: B1 RNA with A26U, G27U, C28G, U29A, C30G
DNA 1: CAATCTGAATTCCGGTCTCCC
DNA 2: TGGTGGCTACGACGGGATT
B4: AUGGAGG (DNA:RNA)
RNA: B1 RNA with U25A, A26U, C28G, U29A, C30G, U31G
DNA 1: CAATCTGAATTCCGGTCTCCC
DNA 2: TGGTGGCTACGACGGGATT
B5: GCUAGUA (DNA:RNA)
RNA: GGGAGACCGGAAUUCAGAUUGUCCGCUAGUAUUAAAUCCCGUCGUAGCCACCA
DNA 1: CAATCTGAATTCCGGTCTCCC
DNA 2: TGGTGGCTACGACGGGATT
B6: AUCCCAA (DNA:RNA)
RNA: B5 RNA with G25A, C26U, U27C, A28C, G29C, U30A
DNA 1: CAATCTGAATTCCGGTCTCCC
DNA 2: TGGTGGCTACGACGGGATT
B7: UGUACAA (DNA:RNA)
RNA: B5 RNA with G25U, C26G, G29C, U30A
DNA 1: CAATCTGAATTCCGGTCTCCC
DNA 2: TGGTGGCTACGACGGGATT
B8: GUGAGAA (DNA:RNA)
RNA: B5 RNA with C26U, U27G, U30A
DNA 1: CAATCTGAATTCCGGTCTCCC
DNA 2: TGGTGGCTACGACGGGATT
B9: CCCGGAC (DNA:RNA)
RNA: B5 RNA with G25C, U27C, A28G, U30A, A31C
DNA 1: CAATCTGAATTCCGGTCTCCC
DNA 2: TGGTGGCTACGACGGGATT

Molecular target: T1, RBFOX1 RRM
Experiment: EMSA; HiTS-Eq, 1 nM pool, 10 min; buffer printed only for the single-RNA assays: 10 mM Tris pH 7.5, 150 mM NaCl, 3.4 mM EDTA, 0.001% NP-40, 30 C
Conditions: tags: His6 N-terminal (pET28a); label: 5' 32P
Summary of the method: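 Purified RbFox RRM (wild type or mutant) was equilibrated for 10 min in 50 µL with 1 nM of a 5′-radiolabelled pool of RNA with 7 randomized nucleotides, its flanks annealed to DNA oligonucleotides, across increasing protein concentrations. Free RNA was separated by 8% native PAGE, excised, reverse-transcribed, PCR-barcoded and sequenced on an Illumina HiSeq 2500. Relative association constants came from read-count changes of each variant against the control reaction, normalised to the cognate motif.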

Row | Binder | binding signal
1 | B1 | 0.0138 KA relative to UGCAUGU
2 | B2 | 0.0232 KA relative to UGCAUGU
3 | B3 | 0.0173 KA relative to UGCAUGU
4 | B4 | 0.0135 KA relative to UGCAUGU
5 | B5 | 0.0137 KA relative to UGCAUGU
6 | B6 | 0.00187 KA relative to UGCAUGU
7 | B7 | 0.0102 KA relative to UGCAUGU
8 | B8 | 0.015 KA relative to UGCAUGU
9 | B9 | 0.00558 KA relative to UGCAUGU
